# Source: US20250092146A1 (ABILITA BIO, published 2025)
# Columns and labels:
# human CCR8 (hCCR8) [1] = biological target: T1, human CCR8 (hCCR8) (human, UniProt P51685 1-355); assay: flow cytometry on HEK293-hCCR8 cells, VHH-Fc
# T1 construct: On transfected HEK293/HEK293T cells, or naturally expressed on HuT-78 cells; also called C-C chemokine receptor type 8
# human CCR8 (hCCR8) [2] = biological target: T1, human CCR8 (hCCR8); assay: flow cytometry on HEK293-hCCR8 cells, VHH-Fc; normalized to wild type VHH-1-Fc
# human CCR8 (hCCR8) [3] = biological target: T1, human CCR8 (hCCR8); assay: flow cytometry on HuT-78 cells, VHH-Fc fusion
# human CCR8 (hCCR8) [4] = biological target: T1, human CCR8 (hCCR8); assay: flow cytometry on HuT-78 cells, VHH-Fc fusion; normalized to VHH-1
# T1 sequence (P51685 whole entry, the tested form may be a part): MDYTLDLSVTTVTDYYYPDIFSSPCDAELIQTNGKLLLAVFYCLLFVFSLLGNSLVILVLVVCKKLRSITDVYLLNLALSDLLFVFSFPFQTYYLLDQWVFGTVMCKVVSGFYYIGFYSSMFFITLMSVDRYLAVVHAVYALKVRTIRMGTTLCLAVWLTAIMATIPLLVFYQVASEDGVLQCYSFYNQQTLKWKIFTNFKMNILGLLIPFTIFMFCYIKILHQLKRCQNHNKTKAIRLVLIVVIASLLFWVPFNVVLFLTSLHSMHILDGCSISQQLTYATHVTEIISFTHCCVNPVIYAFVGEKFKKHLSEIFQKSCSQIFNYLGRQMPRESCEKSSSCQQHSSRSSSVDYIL
Binder,EC50 (human CCR8 (hCCR8) [1]) [nM],% Bmax (human CCR8 (hCCR8) [2]) [%],EC50 (human CCR8 (hCCR8) [3]) [nM],Normalized Bmax (%) (human CCR8 (hCCR8) [4])
"VHH-1-Fc D116A (Fc fusion, rest as VHH-1-Fc) QVQLQESGGGLVQAGGSLRLSCVASGSTSSIRRIGWYRQAPGKQRELVARFSSGGGTNYADFVKGRFTISGDNAKNTMYLQMNSLKPEDTAVYYCSARRLLGTSRVAYWGQGTQVTVSS[human IgG1 Fc not given here]",1.33,93,–,–
"VHH-1-Fc G63A (Fc fusion, rest as VHH-1-Fc) QVQLQESGGGLVQAGGSLRLSCVASGSTSSIRRIGWYRQAPGKQRELVARFSSGAGTNYADFVKGRFTISGDNAKNTMYLQMNSLKPEDTAVYYCSARRLLGTSRVDYWGQGTQVTVSS[human IgG1 Fc not given here]",1.13,73,–,–
"VHH-1-Fc R107A (Fc fusion, rest as VHH-1-Fc) QVQLQESGGGLVQAGGSLRLSCVASGSTSSIRRIGWYRQAPGKQRELVARFSSGGGTNYADFVKGRFTISGDNAKNTMYLQMNSLKPEDTAVYYCSAARLLGTSRVDYWGQGTQVTVSS[human IgG1 Fc not given here]",7.65,48,–,–
"VHH-1-Fc S57A (Fc fusion, rest as VHH-1-Fc) QVQLQESGGGLVQAGGSLRLSCVASGSTSSIRRIGWYRQAPGKQRELVARFASGGGTNYADFVKGRFTISGDNAKNTMYLQMNSLKPEDTAVYYCSARRLLGTSRVDYWGQGTQVTVSS[human IgG1 Fc not given here]",1.25,82,–,–
"VHH-1-Fc R37A (Fc fusion, rest as VHH-1-Fc) QVQLQESGGGLVQAGGSLRLSCVASGSTSSIARIGWYRQAPGKQRELVARFSSGGGTNYADFVKGRFTISGDNAKNTMYLQMNSLKPEDTAVYYCSARRLLGTSRVDYWGQGTQVTVSS[human IgG1 Fc not given here]",4.59,82,–,–
"VHH-1-Fc S27A (Fc fusion, rest as VHH-1-Fc; Printed S27A) QVQLQESGGGLVQAGGSLRLSCVASGATSSIRRIGWYRQAPGKQRELVARFSSGGGTNYADFVKGRFTISGDNAKNTMYLQMNSLKPEDTAVYYCSARRLLGTSRVDYWGQGTQVTVSS[human IgG1 Fc not given here]",1.45,70,–,–
"VHH-1-Fc G59A (Fc fusion, rest as VHH-1-Fc) QVQLQESGGGLVQAGGSLRLSCVASGSTSSIRRIGWYRQAPGKQRELVARFSSAGGTNYADFVKGRFTISGDNAKNTMYLQMNSLKPEDTAVYYCSARRLLGTSRVDYWGQGTQVTVSS[human IgG1 Fc not given here]",1.28,79,–,–
"VHH-1-Fc S58A (Fc fusion, rest as VHH-1-Fc) QVQLQESGGGLVQAGGSLRLSCVASGSTSSIRRIGWYRQAPGKQRELVARFSAGGGTNYADFVKGRFTISGDNAKNTMYLQMNSLKPEDTAVYYCSARRLLGTSRVDYWGQGTQVTVSS[human IgG1 Fc not given here]",1.11,84,–,–
"VHH-1-Fc G64A (Fc fusion, rest as VHH-1-Fc) QVQLQESGGGLVQAGGSLRLSCVASGSTSSIRRIGWYRQAPGKQRELVARFSSGGATNYADFVKGRFTISGDNAKNTMYLQMNSLKPEDTAVYYCSARRLLGTSRVDYWGQGTQVTVSS[human IgG1 Fc not given here]",1.2,73,–,–
"VHH-1-Fc G111A (Fc fusion, rest as VHH-1-Fc) QVQLQESGGGLVQAGGSLRLSCVASGSTSSIRRIGWYRQAPGKQRELVARFSSGGGTNYADFVKGRFTISGDNAKNTMYLQMNSLKPEDTAVYYCSARRLLATSRVDYWGQGTQVTVSS[human IgG1 Fc not given here]",10.6,77,–,–
"VHH-1-Fc R38A (Fc fusion, rest as VHH-1-Fc) QVQLQESGGGLVQAGGSLRLSCVASGSTSSIRAIGWYRQAPGKQRELVARFSSGGGTNYADFVKGRFTISGDNAKNTMYLQMNSLKPEDTAVYYCSARRLLGTSRVDYWGQGTQVTVSS[human IgG1 Fc not given here]",2.47,69,–,–
"VHH-1-Fc S35A (Fc fusion, rest as VHH-1-Fc) QVQLQESGGGLVQAGGSLRLSCVASGSTSAIRRIGWYRQAPGKQRELVARFSSGGGTNYADFVKGRFTISGDNAKNTMYLQMNSLKPEDTAVYYCSARRLLGTSRVDYWGQGTQVTVSS[human IgG1 Fc not given here]",1.26,69,–,–
"VHH-1-Fc L110A (Fc fusion, rest as VHH-1-Fc) QVQLQESGGGLVQAGGSLRLSCVASGSTSSIRRIGWYRQAPGKQRELVARFSSGGGTNYADFVKGRFTISGDNAKNTMYLQMNSLKPEDTAVYYCSARRLAGTSRVDYWGQGTQVTVSS[human IgG1 Fc not given here]",3.6,61,–,–
"VHH-1-Fc S30A (Fc fusion, rest as VHH-1-Fc) QVQLQESGGGLVQAGGSLRLSCVASGSTASIRRIGWYRQAPGKQRELVARFSSGGGTNYADFVKGRFTISGDNAKNTMYLQMNSLKPEDTAVYYCSARRLLGTSRVDYWGQGTQVTVSS[human IgG1 Fc not given here]",1.6,74,–,–
"VHH-1-Fc R108A (Fc fusion, rest as VHH-1-Fc) QVQLQESGGGLVQAGGSLRLSCVASGSTSSIRRIGWYRQAPGKQRELVARFSSGGGTNYADFVKGRFTISGDNAKNTMYLQMNSLKPEDTAVYYCSARALLGTSRVDYWGQGTQVTVSS[human IgG1 Fc not given here]",1.59,48,–,–
"VHH-1-Fc R114A (Fc fusion, rest as VHH-1-Fc) QVQLQESGGGLVQAGGSLRLSCVASGSTSSIRRIGWYRQAPGKQRELVARFSSGGGTNYADFVKGRFTISGDNAKNTMYLQMNSLKPEDTAVYYCSARRLLGTSAVDYWGQGTQVTVSS[human IgG1 Fc not given here]",16.4,78,–,–

# The remaining lines, values ahead:
EC50 (human CCR8 (hCCR8) [1]) [nM],% Bmax (human CCR8 (hCCR8) [2]) [%],EC50 (human CCR8 (hCCR8) [3]) [nM],Normalized Bmax (%) (human CCR8 (hCCR8) [4]),Binder
1.61,82,–,–,"VHH-1-Fc Y117A (Fc fusion, rest as VHH-1-Fc) QVQLQESGGGLVQAGGSLRLSCVASGSTSSIRRIGWYRQAPGKQRELVARFSSGGGTNYADFVKGRFTISGDNAKNTMYLQMNSLKPEDTAVYYCSARRLLGTSRVDAWGQGTQVTVSS[human IgG1 Fc not given here]"
3.77,67,–,–,"VHH-1-Fc S113A (Fc fusion, rest as VHH-1-Fc) QVQLQESGGGLVQAGGSLRLSCVASGSTSSIRRIGWYRQAPGKQRELVARFSSGGGTNYADFVKGRFTISGDNAKNTMYLQMNSLKPEDTAVYYCSARRLLGTARVDYWGQGTQVTVSS[human IgG1 Fc not given here]"
7.19,77,–,–,"VHH-1-Fc V115A (Fc fusion, rest as VHH-1-Fc) QVQLQESGGGLVQAGGSLRLSCVASGSTSSIRRIGWYRQAPGKQRELVARFSSGGGTNYADFVKGRFTISGDNAKNTMYLQMNSLKPEDTAVYYCSARRLLGTSRADYWGQGTQVTVSS[human IgG1 Fc not given here]"
3.12,62,–,–,"VHH-1-Fc S105A (Fc fusion, rest as VHH-1-Fc) QVQLQESGGGLVQAGGSLRLSCVASGSTSSIRRIGWYRQAPGKQRELVARFSSGGGTNYADFVKGRFTISGDNAKNTMYLQMNSLKPEDTAVYYCAARRLLGTSRVDYWGQGTQVTVSS[human IgG1 Fc not given here]"
0.8,45,–,–,"VHH-1-Fc T29A (Fc fusion, rest as VHH-1-Fc) QVQLQESGGGLVQAGGSLRLSCVASGSASSIRRIGWYRQAPGKQRELVARFSSGGGTNYADFVKGRFTISGDNAKNTMYLQMNSLKPEDTAVYYCSARRLLGTSRVDYWGQGTQVTVSS[human IgG1 Fc not given here]"
–,–,2.21,116,"VHH-1.3-2-Fc (Fc fusion, Against VHH-1.3 (IMGT): L110V) EVQLVESGGGLVQPGGSLRLSCAASGSTSSIRRIGWYRQAPGKGRELVARFSSGGGTNYADSVKGRFTISGDNSKNTMYLQMNSLRAEDTAVYYCSARRLVGTSRVDYWGQGTTVTVSS[human IgG1 Fc not given here]"
1.23,70,–,–,"VHH-1-Fc T65A (Fc fusion, rest as VHH-1-Fc) QVQLQESGGGLVQAGGSLRLSCVASGSTSSIRRIGWYRQAPGKQRELVARFSSGGGANYADFVKGRFTISGDNAKNTMYLQMNSLKPEDTAVYYCSARRLLGTSRVDYWGQGTQVTVSS[human IgG1 Fc not given here]"
1.26,84,–,–,"VHH-1-Fc T112A (Fc fusion, rest as VHH-1-Fc) QVQLQESGGGLVQAGGSLRLSCVASGSTSSIRRIGWYRQAPGKQRELVARFSSGGGTNYADFVKGRFTISGDNAKNTMYLQMNSLKPEDTAVYYCSARRLLGASRVDYWGQGTQVTVSS[human IgG1 Fc not given here]"
–,–,1.81,104,"VHH-1.3-3-Fc (Fc fusion, Against VHH-1.3 (IMGT): I39Y, G40S, R55W) EVQLVESGGGLVQPGGSLRLSCAASGSTSSIRRYSWYRQAPGKGRELVAWFSSGGGTNYADSVKGRFTISGDNSKNTMYLQMNSLRAEDTAVYYCSARRLLGTSRVDYWGQGTQVTVSS[human IgG1 Fc not given here]"
–,–,2.03,85.3,"VHH-1.3-1-Fc (Fc fusion, Against VHH-1.3 (IMGT): G64S) EVQLVESGGGLVQPGGSLRLSCAASGSTSSIRRIGWYRQAPGKGRELVARFSSGGSTNYADSVKGRFTISGDNSKNTMYLQMNSLRAEDTAVYYCSARRLLGTSRVDYWGQGTTVTVSS[human IgG1 Fc not given here]"
